Structures can show the parent of a compound that is named as a salt. Whole data set: some 1,900 compounds, median “cell viability of compound + 1 nM pemigatinib relative to pemigatinib-only (DMSO) wells” near 0.95, cut for the lowest 2% near 0.22. The list shows a part of the results.
Each compound was assayed on PDC-DUC18828 (assay: cell viability of compound + 1 nM pemigatinib relative to pemigatinib-only (DMSO) wells (fraction); PDC-DUC18828 is a patient-derived cholangiocarcinoma cell line; higher = less growth inhibition). Conditions: first compound 1 µM; pemigatinib concentration 1 nM; 72 h.
Description: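 Selleck Bioactive library screen in the patient-derived FGFR2 fusion-positive ICC cell line PDC-DUC18828 (500 cells/well). Each compound was tested at 1 uM with 1 nM pemigatinib, in triplicate, for 72 h. Viability was read by CellTiter-Glo and normalised to plate DMSO controls. Value is the paper's averaged normalised viability.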

Compound	cell viability
CN1[C@@H]2C[C@@H](OC(=O)[C@H](CO)c3ccccc3)C[C@H]1[C@@H]1O[C@@H]12 [Scopolamine HBr] + CCN1C(=O)N(c2c(F)c(OC)cc(OC)c2F)Cc2cnc3[nH]c(CN4CCOCC4)cc3c21 [pemigatinib]	0.952
CN(C)CCc1ccc(O)cc1 [Hordenine] + CCN1C(=O)N(c2c(F)c(OC)cc(OC)c2F)Cc2cnc3[nH]c(CN4CCOCC4)cc3c21 [pemigatinib]	0.936
COc1ccc(N(C(=O)Oc2c(C)cccc2C)c2ccnc(Nc3ccc(N4CCN(C)CC4)cc3)n2)c(OC)c1 + CCN1C(=O)N(c2c(F)c(OC)cc(OC)c2F)Cc2cnc3[nH]c(CN4CCOCC4)cc3c21 [pemigatinib]	0.982
COC1=C[C@@H]2[C@@H]3Cc4ccc(OC)c(O)c4[C@]2(CCN3C)CC1=O [Sinomenine] + CCN1C(=O)N(c2c(F)c(OC)cc(OC)c2F)Cc2cnc3[nH]c(CN4CCOCC4)cc3c21 [pemigatinib]	0.956
CC(C)[C@]12O[C@H]1[C@@H]1O[C@]13[C@]1(O[C@H]1C[C@H]1C4=C(CC[C@@]13C)C(=O)OC4)[C@@H]2O [Triptolide (PG490)] + CCN1C(=O)N(c2c(F)c(OC)cc(OC)c2F)Cc2cnc3[nH]c(CN4CCOCC4)cc3c21 [pemigatinib]	0.221
CC(C)(C)c1cc(C=C(C#N)C#N)cc(Br)c1O + CCN1C(=O)N(c2c(F)c(OC)cc(OC)c2F)Cc2cnc3[nH]c(CN4CCOCC4)cc3c21 [pemigatinib]	0.966
CC(NC(C)(C)C)C(=O)c1cccc(Cl)c1 (stereo unspecified) [Amfebutamone HCl] + CCN1C(=O)N(c2c(F)c(OC)cc(OC)c2F)Cc2cnc3[nH]c(CN4CCOCC4)cc3c21 [pemigatinib]	0.961
Cn1c(CCCC(=O)O)nc2cc(N(CCCl)CCCl)ccc21 [Bendamustine HCl] + CCN1C(=O)N(c2c(F)c(OC)cc(OC)c2F)Cc2cnc3[nH]c(CN4CCOCC4)cc3c21 [pemigatinib]	0.984
O=C1CC[C@@]2(O)[C@H]3Cc4ccc(O)c5c4[C@@]2(CCN3CC2CC2)[C@H]1O5 [Naltrexone HCl] + CCN1C(=O)N(c2c(F)c(OC)cc(OC)c2F)Cc2cnc3[nH]c(CN4CCOCC4)cc3c21 [pemigatinib]	1.05
CN1[C@@H]2CC(O)C[C@H]1[C@@H]1O[C@@H]12 (stereo partly specified) [Scopine] + CCN1C(=O)N(c2c(F)c(OC)cc(OC)c2F)Cc2cnc3[nH]c(CN4CCOCC4)cc3c21 [pemigatinib]	0.941
CC1(C)CC(O)CC(C)(C)N1[O] [Tempol] + CCN1C(=O)N(c2c(F)c(OC)cc(OC)c2F)Cc2cnc3[nH]c(CN4CCOCC4)cc3c21 [pemigatinib]	0.935
